{"source": "PubChem BioAssay AID686978", "about": "(National Center for Advancing Translational Sciences (NCATS), 2013)", "note": "“And” between values parts separate entries of the source, which are not always exact repeats. Equal values may be shown once. Among all 420,000 compounds or so, about 64,000 (15%) were called active. The shares of active, inactive and inconclusive entries below differ from those in the screen. Calls come from the whole dose curve; as a rule, active = well fitted inhibition curve with a large enough effect; inconclusive = small, poorly fitted or top-dose-only effect; inactive = flat fitted curve, though single readings scatter. Potencies beside an inconclusive call are fits to weak or partial responses and may not hold up. % is set by controls: 0 for no effect and ±100 for the full control effect; potency is the fitted concentration of half-maximal effect; tags give direction and shape of the fitted curve."}
{"test": "qHTS for Inhibitors of human tyrosyl-DNA phosphodiesterase 1 (TDP1): qHTS in cells in absence of CPT; note: nearly all actives have a fitted effect of over 55% in size", "conditions": "DT40 Tdp1-/- hTDP1 cells, no CPT, ATP luminescence, 48 h; activity change, negative = growth inhibition: at 46.2 µM (top of the series) unless noted", "summary_of_the_method": "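Cells were dispensed at 400 per well, compounds added by pin tool, plates incubated ≥48 hr at 37 °C, then CellTiter-Glo added for 30 min at room temperature before luminescence reading. Line: DT40 Tdp1-/- complemented with hTDP1; camptothecin omitted.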"}
{"molecule": "Cc1ccc(N2CCN(S(=O)(=O)c3nnc(NC(=O)c4cccc(F)c4)s3)CC2)cc1", "Potency": "active: 14.6 µM"}
{"molecule": "Cc1ccc2c(c1)CCCN2C(=O)CSc1ccccc1", "activity change, negative = growth inhibition": "inconclusive: -30.8% [inhibitor]"}
{"molecule": "CC1Cc2ccccc2N1C(=O)COC(=O)c1ccccc1NCCO", "note": "(stereo not given)", "Potency": "inconclusive: 29.1 µM [inhibitor, single point]"}
{"molecule": "CC(=O)OC1CCC2(C)C(COc3ccc4ccc(=O)oc4c3)C(C)(O)CCC2C1(C)C", "note": "(stereo not given)", "Potency": "inconclusive: 13 µM [inhibitor, partial curve]"}
{"molecule": "CCCCCOC(=O)C1=C(C)N(C)C(=O)NC1c1cc(Br)c(O)c(OC)c1", "note": "(stereo not given)", "Potency": "inconclusive: 20.6 µM [inhibitor, single point]"}
{"molecule": "N#Cc1nc(-c2cccs2)oc1N1CCN(Cc2ccccc2)CC1", "Potency": "inconclusive: 20.6 µM [inhibitor, single point]"}
{"molecule": "N#CCCN1CCN(C(=S)c2ccc(-c3ccc(Cl)c(Cl)c3)o2)CC1", "Potency": "inconclusive: 29.1 µM [inhibitor, single point]"}
{"molecule": "O=C1OC(CN2CCOCC2)CN1N=Cc1ccc([N+](=O)[O-])o1", "note": "(stereo not given)", "Potency": "inconclusive: 29.1 µM [inhibitor, single point]"}
{"molecule": "CCCCCOc1ccc(C(=O)CCN2CCOCC2)cc1", "Potency": "active: 8.2 µM"}
{"molecule": "COc1ccc(C(=O)Nc2ccccc2)cc1NC(=O)c1ccc([N+](=O)[O-])cc1", "Potency": "inconclusive: 18.4 µM [inhibitor, single point]"}
{"molecule": "CCc1sc(C(=O)Nc2cccc(-n3cnnn3)c2)cc1C", "Potency": "inconclusive: 25.9 µM [inhibitor, single point]"}
{"molecule": "CN(Cc1ccco1)C(=O)c1cc2c(s1)-c1ccc(Cl)cc1S(=O)(=O)C2", "Potency": "inconclusive: 29.1 µM [inhibitor, single point]"}
{"molecule": "O=c1c2ccccc2oc2ccc(NCCCn3ccnc3)cc12", "Potency": "inconclusive: 25.9 µM [inhibitor, single point]"}
{"molecule": "COC(=O)[C@]12C(=O)C(C)=C(O)[C@@]1(C)C(C)=CC1[C@@]34CC[C@@H](OC(C)=O)C(C)(C)C3C(C[C@]12C)OC4=O", "note": "(stereo not given in full)", "Potency": "inactive"}
{"molecule": "N#CC(C#N)=C1C=CC=CN1/C(=C\\c1ccco1)C(=O)c1ccc(Cl)cc1", "Potency": "active: 0.92 µM"}
{"molecule": "CCOc1ccc(C2C=C(c3ccc(F)cc3)Nc3ncnn32)cc1", "note": "(stereo not given)", "Potency": "inconclusive: 15.8 µM [inhibitor, partial curve]"}
{"molecule": "CCc1ccc(NC(=O)CS(=O)CC(=O)NCCCc2ccccc2)cc1", "note": "(stereo not given)", "Potency": "inactive"}
{"molecule": "CC1CN(C(=O)c2ccc(CNS(=O)(=O)c3cccc(C(F)(F)F)c3)cc2)CC(C)O1", "note": "(stereo not given)", "Potency": "inconclusive: 20 µM [inhibitor, single point]"}
{"molecule": "CCCCCOc1ccc(NC(=O)C(=O)NCCC2=CCCCC2)cc1", "activity change, negative = growth inhibition": "inconclusive: -31.6% [inhibitor]"}
{"molecule": "COc1ccc(NC(=O)Nc2ccc(Cc3ccncc3)cc2)c(OC)c1", "Potency": "inactive"}
{"molecule": "Cc1ccc2nc(Cl)c(C3CC(c4cccs4)=NN3C(=O)CCC(=O)O)cc2c1", "note": "(stereo not given)", "Potency": "active: 5.17 µM"}
{"molecule": "CCC(C)NC(=O)c1ccc(N2CC3CC(C2)c2cccc(=O)n2C3)c(NC(=O)c2ccc(Br)o2)c1", "note": "(stereo not given)", "Potency": "inactive"}
{"molecule": "COc1ccc(CN2C(=O)C(C)Nc3ncnc(N4CCN(c5ccccn5)CC4)c32)cc1", "note": "(stereo not given)", "Potency": "active: 23.1 µM"}
{"molecule": "NC1=NC2CS(=O)(=O)CC2S1", "note": "(stereo not given)", "Potency": "inactive"}
{"molecule": "O=C(COC(=O)Cn1cnc2ccccc21)Nc1ccc(Br)cc1", "Potency": "inactive"}
{"molecule": "Cc1cc(C)cc(OCC(=O)N(C)CC(=O)Nc2ccc(Cl)c(C(F)(F)F)c2)c1", "Potency": "inconclusive: 29.1 µM [inhibitor, single point]"}
{"molecule": "O=C(Cc1cccs1)NCc1cccc(Cl)c1", "Potency": "inactive"}
{"molecule": "Nc1c(C(=O)N2CCOCC2)sc2nc3c(cc12)CCCC3", "Potency": "inconclusive: 23.1 µM [inhibitor, single point]"}
{"molecule": "Cc1ccc(CNc2nc(CN3CCSCC3)nc3ccccc23)o1", "Potency": "inconclusive: 23.1 µM [inhibitor, single point]"}
{"molecule": "COc1ccc(NC(=O)CNC(=O)Cn2ccc3ccccc3c2=O)c(OC)c1", "Potency": "inactive"}
{"molecule": "CCCN1CCN(CCCNC(=O)c2cc3c(=O)[nH]c4ccccc4c3s2)CC1", "Potency": "inconclusive: 29.1 µM [inhibitor, single point] and inconclusive: 25.9 µM [inhibitor, single point]"}
{"molecule": "Cc1cccc(NC(=O)c2ccc(OCC(=O)NCc3ccccc3)cc2)c1C", "Potency": "inactive"}
{"molecule": "CC(Oc1ccc(Br)cc1)C(=O)Nc1ccc(N2CCOCC2)cc1N1CCOCC1", "note": "(stereo not given)", "Potency": "inconclusive: 23.1 µM [inhibitor, single point]"}
{"molecule": "O=[N+]([O-])c1cccc(-c2nc3ccccc3s/c2=N/O)c1", "Potency": "inconclusive: 29.1 µM [inhibitor, partial curve, poor fit]"}
{"molecule": "CC(C)c1ccc(NC2CCCN(C(=O)c3n[nH]c4c3CCC4)C2)cc1", "note": "(stereo not given)", "Potency": "inconclusive: 16.4 µM [inhibitor, partial curve]"}
{"molecule": "COc1ccc(C(C)N(C)Cc2nc(N3CCN(C(=O)c4ccco4)CC3)c3ccccc3n2)cc1", "note": "(stereo not given)", "Potency": "inconclusive: 23.1 µM [inhibitor, single point]"}
{"molecule": "O=C(Nc1c(C(=O)N2CCCCC2)cnn1-c1ccccc1)c1ccccc1F", "Potency": "inactive"}
{"molecule": "Clc1ccc(Oc2nc(N3CCOCC3)nc(N3CCOCC3)n2)cc1", "activity change, negative = growth inhibition": "inconclusive: -31.7% [inhibitor]"}
{"molecule": "Cc1ccc(S(=O)(=O)NCC(=O)NCC(=O)OCc2c(F)cccc2Cl)cc1", "Potency": "inactive"}
{"molecule": "CCCNC(=O)C1(C)CCCN(Cc2ccc(-c3ccccc3)cc2)C1", "note": "(stereo not given)", "Potency": "active: 5.8 µM"}
{"molecule": "O=S(=O)(c1ccc(Br)cc1)c1cnc2ccccc2n1", "Potency": "inconclusive: 29.1 µM [inhibitor, single point]"}
{"molecule": "O=C1CC(c2ccccc2)CC(=O)C1CS(=O)(=O)c1ccccc1", "note": "(stereo not given)", "activity change, negative = growth inhibition": "inconclusive: -33.9% [inhibitor]"}
{"molecule": "O=C(CCNS(=O)(=O)c1ccccc1C(F)(F)F)N1CCN(C(c2ccccc2)c2ccccc2)CC1", "Potency": "active: 8.2 µM"}
{"molecule": "CC(C)(C)OC(=O)N1CCC(CC2CC(c3cccc(Br)c3)=NO2)(C(=O)NCC2CCCCC2)CC1", "note": "(stereo not given)", "Potency": "active: 16.4 µM"}
{"molecule": "O=C(Nc1ccccc1)OC[C@@H]1C=CS(=O)(=O)N1Cc1ccc(Br)cc1", "Potency": "inconclusive: 29.1 µM [inhibitor, single point]"}
